According to PubChem BioAssay AID504466 (National Center for Advancing Translational Sciences (NCATS), 2011):
In all, about 330,000 compounds went through this assay and about 4,200 (1.3%) were called active. The inconclusive results got no clear call from the source; some entries with a clear call stand among them for comparison. Calls come from the whole dose curve; as a rule, active = well fitted activation curve with a large enough effect; inconclusive = small, poorly fitted or top-dose-only effect; inactive = no such curve, though single readings can be large or run the other way. A potency beside an inconclusive call is a rough fit, not a confirmed value.

experiment: qHTS screen for small molecules that induce genotoxicity in human embryonic kidney (HEK293T) cells expressing luciferase-tagged ELG1; details: HEK293T ELG1-luciferase reporter, luminescence, 16 h; series mostly up to 46 µM; activity change, positive = activation: at the top concentration; note: nearly all actives have a fitted effect of over 60% in size; for activity change, positive = activation: % of control where 0% means no effect
Outline: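 Cells (2,000/well) expressing the ELG1-luciferase fusion are dosed by pin tool and kept 16 hr at 37 °C, 5% CO2. Signal comes from ONE-Glo luciferase reagent after 30 min at room temperature.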
Potency is the fitted concentration of half-maximal effect; tags give direction and shape of the fitted curve.

Compound	activity change, positive = activation	Potency
CCOc1cc(/C=N/NC(=O)C(=O)Nc2cc(Cl)ccc2C)ccc1O	inactive: 9.78%	
COc1ccc(NC(=O)n2ncc3cc(Cl)ccc32)cc1OC		inconclusive: 20.6 µM [activator, partial curve, poor fit]
O=C(/C=C/c1cccs1)Nc1cccnc1		inconclusive: 18.4 µM [activator, partial curve]
Cc1cc(C(=O)COC(=O)c2ccc3c(c2)OCO3)c(C)n1CC1CCCO1 (configuration not stated)		inconclusive: 2.59 µM [activator, partial curve]
O=C(O)C1CC(O)CN1c1nc(Cl)ccc1[N+](=O)[O-] (configuration not stated)	inactive: -0.679%	
Cc1ccc(C)n1-n1c(C)nc2sc(-c3ccccc3)cc2c1=O		inconclusive: 11.2 µM [activator, partial curve, poor fit]
Cc1nc([N+](=O)[O-])cn1Cc1cccc([N+](=O)[O-])c1	inactive: -1.55%	
CCOc1nc(Nc2ccc(F)cc2)nc(N2CCN(c3ccc(OC)cc3)CC2)n1	inactive: 0.399%	
Cn1c(=O)c2c(-c3ccccc3F)c3c(nc2n(C)c1=O)-c1ccccc1C3O (configuration not stated)		inconclusive: 25.9 µM [activator, partial curve, poor fit]
COc1ccc(/C=C/C(=O)NCCCc2ccccc2)cc1	inactive: -1.86%	
O=C(Oc1oc(-c2ccco2)nc1C=Nc1ccccc1)c1ccco1		inconclusive: 11.2 µM [activator, partial curve, poor fit]
CN1CCCN(S(=O)(=O)c2ccc(O)c(C(=O)O)c2)CC1	inactive: -0.557%	
Cc1ccc2nc(SCC(=O)N3CCCC3)[nH]c2c1		active: 3.66 µM
Cn1ccnc1SCC(=O)Nc1ccc(Br)cc1C(F)(F)F		inconclusive: 14.6 µM [activator, partial curve]
O=[N+]([O-])c1ccc2c(c1)C(O)n1nc(-c3ccccc3)nc1S2 (configuration not stated)		inconclusive: 13 µM [activator, partial curve, poor fit]
CC(C)NC(=S)N/N=C/c1c[nH]c2ccccc12		inconclusive: 20.6 µM [activator, partial curve, poor fit]
CC(=O)Nc1nnc(SCc2ccccc2F)s1		inconclusive: 14.6 µM [activator, partial curve, poor fit]
CCN(CC)CCC(c1cc(OC)c(OC)c(OC)c1)c1c(OC)cc(OC)c2c(-c3ccccc3)cc(=O)oc12 (configuration not stated)		inconclusive: 25.9 µM [activator, partial curve, poor fit]
CC1(C)Cc2c(cnn2-c2ccccc2)C(NC(=O)CCCn2cncn2)C1 (configuration not stated)		inconclusive: 20.6 µM [activator, partial curve, poor fit]
Cc1cccc(Nc2nc3ccccc3s2)c1C		active: 6.51 µM
CN(CC(=O)Nc1cccc(F)c1)C(=O)c1cc(S(=O)(=O)N(C)C)ccc1N1CCCC1	inactive: -4.06%	
COc1cccc(N=Nc2c(C)[nH]n(-c3ccccc3)c2=O)c1		inconclusive: 20.6 µM [activator, single point]
O=C(NCc1ccc(Cl)cc1)c1cc2ccccc2oc1=O	inactive: 7.59%	
O=C(Nc1ccnn1C1CCN(Cc2ccc(O)c(Cl)c2)CC1)C1CCCC1	inactive: 0.238%	

Compound	activity change, positive = activation	Potency
COC(=O)C(=Cc1ccc(OCc2ccc([N+](=O)[O-])cc2)c(OC)c1)C(=O)OC		inconclusive: 5.8 µM [activator, single point]
O=C(CN1C(=O)CCC1=O)Nc1nc(-c2nc3ccccc3s2)cs1		inconclusive: 20.6 µM [activator, single point]
CCOc1ccc(NC(=O)c2ccc(NC(=O)c3ccccc3Br)cc2)cc1		inconclusive: 29.1 µM [activator, partial curve, poor fit]
O=C(Cn1c(=O)n(CC(=O)NCc2ccccc2)c2ccccc21)NCc1ccccc1		inconclusive: 29.1 µM [activator, single point]
O=[N+]([O-])c1cccnc1NCCNc1ncc(C(F)(F)F)cc1Cl		inconclusive: 11.6 µM [activator, partial curve, poor fit]
O=C(CCNC(=O)C1CCN(S(=O)(=O)c2ccc(F)cc2)CC1)NCc1cccc(Cl)c1	inactive: -1.96%	
O=C(Nc1ccc(Cl)cc1)Nc1nnc(CSCc2ccccc2Cl)s1	inactive: -9.56%	
O=C1C(Cc2ccccc2)Nc2ncnc(N3CCc4ccccc4C3)c2N1Cc1ccc(Br)cc1 (configuration not stated)	inactive: -3.19%	
COc1cccc(NC(=O)c2ccc3c(c2)N(C)CCS3)c1		inconclusive: 2.31 µM [activator, full curve]
O=C(Nc1nc2c(s1)CCCC2)c1ccc(Br)o1		active: 11.6 µM
Cc1c(C(=O)N(C)CCOc2ccccc2)oc2c(Cl)cccc12	inactive: 4.41%	
Cc1ccc(NC(=O)Nc2ccc(Cl)c(Cl)c2)nc1		inconclusive: 5.8 µM [activator, partial curve]
Cc1cccc(-n2c(C)nc3c(cnn3-c3ccc(F)cc3)c2=O)c1	inactive: -5.92%	
Cc1cc(C)n(CC(O)COc2ccc3ccccc3c2)n1 (configuration not stated)		inconclusive: 23.1 µM [activator, partial curve, poor fit]
O=C(Cc1ccccc1)Nc1ccc(NC(=O)c2cccs2)cc1	inactive: 5.93%	
Cc1ccc(N2C(=O)C(Cl)=C(N3CCCCCC3)C2=O)cc1		inconclusive: 16.4 µM [activator, partial curve, poor fit]
Oc1c(Br)cc(Br)cc1C=Nc1ccc2c(c1)OCCO2		inconclusive: 18.3 µM [activator, partial curve, poor fit]
CCOC(=O)c1sc(NC(=O)c2cncc(Br)c2)nc1C		active: 18.4 µM
O=C(Nc1ccccc1C(F)(F)F)c1cc(-c2ccc(O)cc2)on1	inactive: 13.9%	
C/C(=N\NC(=O)c1cc(C)[nH]n1)c1cccs1		inconclusive: 3.66 µM [activator, full curve]
Cc1c(C(=O)NCc2ccoc2)oc2ccc3c(c12)C(=O)CC(C)(C)O3		inconclusive: 18.4 µM [activator, partial curve]
CC1=CC2=NC(=O)/C(=C\c3cccn3CCOc3cccc(C)c3)C(=N)N2O1	inactive: -3.27%	
O=C(COC(=O)c1ccc2[nH]c3c(c2c1)CCCC3)Nc1ccccc1Cl		inconclusive: 23.1 µM [activator, single point]
